{"source": "paper PMC4336329", "about": "(PLoS ONE, 2015)", "note": "In all, about 310,000 compounds went through this assay and about 2,200 (0.71%) showed an effect of 50% or more. The effect is printed as a negative number. The list shows a part of the results."}
{"biological_target": "human ether-à-go-go-related gene (hERG) potassium channel (human, UniProt Q12809)", "sequence (Q12809 whole entry, looked up)": "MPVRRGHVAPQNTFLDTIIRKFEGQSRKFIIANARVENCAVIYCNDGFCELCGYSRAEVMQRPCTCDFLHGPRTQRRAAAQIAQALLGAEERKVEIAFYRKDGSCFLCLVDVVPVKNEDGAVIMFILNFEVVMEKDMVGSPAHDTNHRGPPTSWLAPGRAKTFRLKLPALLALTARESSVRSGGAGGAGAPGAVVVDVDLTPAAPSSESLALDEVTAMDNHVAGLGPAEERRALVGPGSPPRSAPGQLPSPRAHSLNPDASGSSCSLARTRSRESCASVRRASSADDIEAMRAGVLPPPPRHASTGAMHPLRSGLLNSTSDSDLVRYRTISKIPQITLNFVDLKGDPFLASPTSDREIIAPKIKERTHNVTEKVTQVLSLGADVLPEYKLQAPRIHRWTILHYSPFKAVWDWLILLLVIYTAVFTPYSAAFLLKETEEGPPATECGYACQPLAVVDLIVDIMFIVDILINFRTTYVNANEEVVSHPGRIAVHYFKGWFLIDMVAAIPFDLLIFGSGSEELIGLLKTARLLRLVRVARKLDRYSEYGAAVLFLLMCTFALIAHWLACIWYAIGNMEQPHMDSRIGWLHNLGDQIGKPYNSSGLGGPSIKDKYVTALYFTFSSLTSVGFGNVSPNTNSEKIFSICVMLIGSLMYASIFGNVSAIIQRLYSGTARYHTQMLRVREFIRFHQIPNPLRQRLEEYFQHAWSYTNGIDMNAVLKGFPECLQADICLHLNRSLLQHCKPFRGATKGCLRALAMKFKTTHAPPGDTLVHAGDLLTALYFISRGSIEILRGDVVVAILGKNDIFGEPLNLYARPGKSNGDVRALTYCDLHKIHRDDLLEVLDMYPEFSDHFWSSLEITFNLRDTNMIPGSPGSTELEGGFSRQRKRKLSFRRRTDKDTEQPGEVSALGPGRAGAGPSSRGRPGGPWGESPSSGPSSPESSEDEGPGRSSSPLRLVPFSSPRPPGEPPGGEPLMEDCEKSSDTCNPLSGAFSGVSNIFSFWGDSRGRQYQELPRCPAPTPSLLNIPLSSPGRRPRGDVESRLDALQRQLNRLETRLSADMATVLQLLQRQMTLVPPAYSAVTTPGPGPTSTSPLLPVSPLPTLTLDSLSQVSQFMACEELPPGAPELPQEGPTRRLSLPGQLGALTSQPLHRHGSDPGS", "experiment": "primary screen, population patch clamp on CHO cells stably expressing hERG", "units": {"hERG current change (%, negative = inhibition) at 1uM": "%"}}
{"smiles": "COc1ccc(-c2nsc3c(N4CCCC4)ncnc23)cc1", "hERG current change (%, negative = inhibition) at 1uM": 4.38}
{"smiles": "Cc1noc(C)c1COc1ccc(CC(=O)NCCc2ccccn2)cc1", "hERG current change (%, negative = inhibition) at 1uM": 2.87}
{"smiles": "Cn1c(=O)c2c(Nc3ccc(F)cc3)cc(=O)n(-c3ccccc3)c2n(C)c1=O", "hERG current change (%, negative = inhibition) at 1uM": 13.5}
{"smiles": "COc1ccc(C2=NN(c3ccccc3)C(c3ccc(OC)c(OC)c3)C2)cc1", "note": "(centres unmarked)", "hERG current change (%, negative = inhibition) at 1uM": 15.1}
{"smiles": "COc1ccc(Cl)cc1NC(=O)c1cc(-c2cc(C)ccc2O)n[nH]1", "hERG current change (%, negative = inhibition) at 1uM": 12.1}
{"smiles": "O=C(c1cc2c(=O)n3ccccc3nc2s1)N1CCOCC1", "hERG current change (%, negative = inhibition) at 1uM": -4.72}
{"smiles": "O=C(CNC(=O)c1cn2ccccc2n1)Nc1ccc(F)c(F)c1", "hERG current change (%, negative = inhibition) at 1uM": 11.8}
{"smiles": "O=C(Nc1cccc(O)c1)c1c(O)c2ccccc2[nH]c1=O", "hERG current change (%, negative = inhibition) at 1uM": 10.4}
{"smiles": "COCCCNC(=O)Cn1nnc(-c2ccc(NC(=O)c3ccc(F)cc3)cc2)n1", "hERG current change (%, negative = inhibition) at 1uM": 14.4}
{"smiles": "N#Cc1c(NC(=O)CSc2ncnc3c2cnn3-c2ccccc2Cl)sc2c1CCCC2", "hERG current change (%, negative = inhibition) at 1uM": -0.537}
{"smiles": "OCc1cc(-c2ccccn2)no1", "hERG current change (%, negative = inhibition) at 1uM": 8.87}
{"smiles": "O=C(NCCN1CCOCC1)c1sc2ccccc2c1Cl", "hERG current change (%, negative = inhibition) at 1uM": 6.39}
{"smiles": "O=C(c1ccc(N2CCCS2(=O)=O)cc1)N1CCN(c2ccccc2)CC1", "hERG current change (%, negative = inhibition) at 1uM": 6.36}
{"smiles": "O=C(CN1CCN(c2ccccn2)CC1)Nc1cccc(F)c1", "hERG current change (%, negative = inhibition) at 1uM": 8.15}
{"smiles": "c1csc(-c2nc3ccccc3[nH]2)c1", "hERG current change (%, negative = inhibition) at 1uM": 15.8}
{"smiles": "COc1ccc(C2CC3(CC(C)(C)NC(=O)N3)Oc3cc(O)ccc32)cc1", "note": "(centres unmarked)", "hERG current change (%, negative = inhibition) at 1uM": -6.94}
{"smiles": "COc1cc2c(cc1OC)C(c1cccc([N+](=O)[O-])c1)N(C(=O)CCC(=O)O)CC2", "note": "(centres unmarked)", "hERG current change (%, negative = inhibition) at 1uM": 9.28}
{"smiles": "CSc1ncccc1C(=O)OCC(=O)c1[nH]c(C)c(C(C)=O)c1C", "hERG current change (%, negative = inhibition) at 1uM": 9.01}
{"smiles": "Cc1ccc(S(=O)(=O)N2CCOCC2)cc1NC(=O)CSCc1c(C)noc1C", "hERG current change (%, negative = inhibition) at 1uM": -1.11}
{"smiles": "O=C(COC(=O)c1cc([N+](=O)[O-])ccc1N1CCOCC1)Nc1ncc(Cl)cc1Cl", "hERG current change (%, negative = inhibition) at 1uM": -8.33}
{"smiles": "CN(C)S(=O)(=O)c1ccc(Cl)c(C(=O)NNC(=O)Cc2nc3ccccc3n2C)c1", "hERG current change (%, negative = inhibition) at 1uM": 8.52}
{"smiles": "O=C(Nc1ccc(Cl)cc1)c1ccc(-n2cncn2)c([N+](=O)[O-])c1", "hERG current change (%, negative = inhibition) at 1uM": -9.4}
{"smiles": "CCOC(=O)c1c(-n2cccc2)sc2c1CCCC2=O", "hERG current change (%, negative = inhibition) at 1uM": 5.16}
{"smiles": "COc1c(Cl)ccc(Cl)c1C(=O)NC(=O)Nc1nc(C)cc(C)n1", "hERG current change (%, negative = inhibition) at 1uM": 5.87}
{"smiles": "O=C(NCc1ccco1)c1cccnc1Cl", "hERG current change (%, negative = inhibition) at 1uM": 3.31}
{"smiles": "Cc1ccc(NC(=S)N(CCCN2CCC(C)CC2)Cc2ccco2)cc1C", "hERG current change (%, negative = inhibition) at 1uM": -25.5}
{"smiles": "CC(c1ccco1)N(C(=O)C12CC3CC(CC(C)(C3)C1)C2)c1ccccn1", "note": "(centres unmarked)", "hERG current change (%, negative = inhibition) at 1uM": 8.34}
{"smiles": "Oc1ccc(/C=N/n2c(-c3ccco3)csc2=Nc2cccnc2)c(O)c1", "hERG current change (%, negative = inhibition) at 1uM": 7.69}
{"smiles": "CCOC(=O)Nc1ccc([N+](=O)[O-])cc1C", "hERG current change (%, negative = inhibition) at 1uM": 12.3}
{"smiles": "CCCn1c(SCC(=O)Nc2cccc(F)c2)nc(O)cc1=O", "hERG current change (%, negative = inhibition) at 1uM": 9.12}
{"smiles": "CCCn1nc(NC(=O)CC)c2cc3cccc(C)c3nc21", "hERG current change (%, negative = inhibition) at 1uM": 11.7}
{"smiles": "COc1ccc(NC(=O)CN2CCN(c3c(C)cc(C)cc3C)CC2)cc1", "hERG current change (%, negative = inhibition) at 1uM": 12.7}
{"smiles": "Cc1ccc(/C=C2/Sc3ccc(C(=O)NCCN4CCOCC4)cc3NC2=O)cc1", "hERG current change (%, negative = inhibition) at 1uM": -13.2}
{"smiles": "COc1ccc(NC(=O)NNC(=O)CCC(=O)Nc2ccccc2Cl)cc1", "hERG current change (%, negative = inhibition) at 1uM": 9.56}
{"smiles": "CC(=O)Nc1cccc(C(=O)Nc2nc(C)cs2)c1", "hERG current change (%, negative = inhibition) at 1uM": 1.1}
{"smiles": "c1ccc(-n2c(SCC3CCCCO3)nnc2-c2cnccn2)cc1", "note": "(centres unmarked)", "hERG current change (%, negative = inhibition) at 1uM": 13.3}
{"smiles": "O=C(Nc1ccc(F)cc1)OCCN1CCN(Cc2ccccc2)CCC1=O", "hERG current change (%, negative = inhibition) at 1uM": -0.713}
{"smiles": "CC(C)(C)SCCNC(=O)CN(c1ccccc1)S(=O)(=O)c1ccccc1", "hERG current change (%, negative = inhibition) at 1uM": 6.08}
{"smiles": "COc1ccc(/C=N/NC(=O)CNC(=O)/C=C/c2ccco2)cc1OC", "hERG current change (%, negative = inhibition) at 1uM": 4.97}
{"smiles": "CCOC(=O)c1cc(C#N)c(SCC(=O)c2cc(C#N)c(SC)nc2C)[nH]c1=O", "hERG current change (%, negative = inhibition) at 1uM": 0.0865}
{"smiles": "Cc1cc(NC(=O)c2ccc3c(c2)OCCO3)no1", "hERG current change (%, negative = inhibition) at 1uM": 10.2}
{"smiles": "COc1cc(/C=N/N2C(=O)c3ccccc3NC2(C)c2cccc([N+](=O)[O-])c2)cc(Br)c1O", "note": "(centres unmarked)", "hERG current change (%, negative = inhibition) at 1uM": 2.17}
{"smiles": "CC1CCCN(C(=O)C(Cc2ccccc2)n2cccc2)C1", "note": "(centres unmarked)", "hERG current change (%, negative = inhibition) at 1uM": 10.8}
{"smiles": "CCc1ccc(N(CC(=O)Nc2ccc(NC(C)=O)cc2)S(=O)(=O)c2ccccc2)cc1", "hERG current change (%, negative = inhibition) at 1uM": 8.39}
{"smiles": "COc1cc(/C=C(\\C#N)c2nc3ccccc3[nH]2)cc(Br)c1OCc1ccccc1", "hERG current change (%, negative = inhibition) at 1uM": 11.2}
{"smiles": "CCOc1cc(C#N)c(NC(=O)c2ccnn2C)cc1OCC", "hERG current change (%, negative = inhibition) at 1uM": 8.07}
{"smiles": "Cc1ccc(S(=O)(=O)NC2=NCN(CCOC(=O)c3ccc([N+](=O)[O-])cc3)CN2)cc1", "hERG current change (%, negative = inhibition) at 1uM": 8.29}
{"smiles": "COc1ccc(Cl)cc1NC(=O)CN1c2ccccc2CC1C", "note": "(centres unmarked)", "hERG current change (%, negative = inhibition) at 1uM": 18.5}
{"smiles": "COc1c(C)cc(C(=O)C2CCCN(Cc3c(C)n(C)n(-c4ccccc4)c3=O)C2)cc1C", "note": "(centres unmarked)", "hERG current change (%, negative = inhibition) at 1uM": 1.73}
{"smiles": "Cc1nc(-c2cccnc2)sc1C(N)=O", "hERG current change (%, negative = inhibition) at 1uM": 9.5}
{"smiles": "CCOc1cc(CNC2CCCC2)c(Cl)cc1OCC(=O)Nc1ccccc1", "hERG current change (%, negative = inhibition) at 1uM": 0.521}
{"smiles": "CN(C(=O)c1cccc(NC(=O)Cc2ccccc2)c1)c1ccccc1", "hERG current change (%, negative = inhibition) at 1uM": 8.74}
{"smiles": "Cn1c(=O)c2c(ncn2CC(O)CNc2ccc(Br)cc2)n(C)c1=O", "note": "(centres unmarked)", "hERG current change (%, negative = inhibition) at 1uM": -7.26}
{"smiles": "CCOc1ccc(N2CC(C(=O)Nc3ccccc3F)CC2=O)cc1", "note": "(centres unmarked)", "hERG current change (%, negative = inhibition) at 1uM": 9.75}
{"smiles": "O=C(CSC1=NCCS1)Nc1ccccc1F", "hERG current change (%, negative = inhibition) at 1uM": 8.83}
{"smiles": "C=CCOC(=O)C1=C(C)NC(C)=C(C(=O)OCC=C)C1c1cccs1", "hERG current change (%, negative = inhibition) at 1uM": 2.58}
